According to the supplement of paper PMC8285479:
Structures can show the parent of a compound that is named as a salt. ± gives the standard deviation of the averaged measurements. In all, about 1,900 compounds were measured (“normalised cell viability (NPI; 0 = phenylarsine oxide control, 1 = DMSO control)”: median about 1, lowest 2% from about 0.039 on). The list shows a part of the results.

System: NCI-H1944
Test: normalised cell viability (NPI; 0 = phenylarsine oxide control, 1 = DMSO control) (fraction of DMSO control); NCI-H1944 is a non-small cell lung cancer line; higher = more viable cells (less compound toxicity)
Settings: 6 days
[1] = glucocorticoid arm: hydrocortisone 2.75 uM co-treatment, compound 1 µM
[2] = glucocorticoid arm: hydrocortisone 2.75 uM co-treatment, compound 5 µM
[3] = glucocorticoid arm: hydrocortisone 2.75 uM pre-treated 2 days and continued, compound 1 µM
[4] = glucocorticoid arm: hydrocortisone 2.75 uM pre-treated 2 days and continued, compound 5 µM
[5] = glucocorticoid arm: vehicle, compound 1 µM
[6] = glucocorticoid arm: vehicle, compound 5 µM
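Note: CTB read-out in 384-well plates, mean of triplicate wells, normalised per plate against 1 µM phenylarsine oxide and 0.1% DMSO, compounds added 24 h after seeding.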

| SMILES | normalised cell viability [1] | normalised cell viability [2] | normalised cell viability [3] | normalised cell viability [4] | normalised cell viability [5] | normalised cell viability [6] |
| --- | --- | --- | --- | --- | --- | --- |
| CC(=O)OCC(=O)NCCCOc1cccc(CN2CCCCC2)c1 [Roxatidine Acetate HCl] | 1.01 ± 0.025 | 1.01 ± 0.02 | 1.01 ± 0.011 | 1.006 ± 0.0075 | 0.9977 ± 0.004 | 0.991 ± 0.011 |
| CC1(C)CCC=[N+]1[O-] [5,5-Dimethyl-1-pyrroline-N-oxide] | 1.003 ± 0.0058 | 0.986 ± 0.013 | 0.988 ± 0.0076 | 0.984 ± 0.023 | 0.9853 ± 0.0031 | 0.9857 ± 0.0067 |
| C=CC(N)CCC(=O)O (racemic) [(±)-gamma-Vinyl GABA] | 1.01 ± 0.012 | 0.998 ± 0.033 | 1.01 ± 0.02 | 1.01 ± 0.021 | 1.02 | 1.01 |
| Oc1ccc(C2CNCCc3c2cc(O)c(O)c3Cl)cc1 (configuration not stated) [Fenoldopam monohydrobromide] | 0.9943 ± 0.0074 | 0.995 ± 0.013 | 1.01 | 1 ± 0.0095 | 1.01 | 1 |
| N#C/C(=C\c1ccc(O)c(O)c1)C(=O)Nc1ccccc1 [Tyrphostin AG 494] | 0.9787 ± 0.0078 | 0.988 ± 0.035 | 1 ± 0.026 | 0.961 ± 0.03 | 0.9777 ± 0.0074 | 0.9967 ± 0.0032 |
| O=C1NC(=O)C(c2ccccc2[N+](=O)[O-])=C1Nc1ccc(O)c(Cl)c1 | 1.01 |  |  | 1.02 |  |  |
| O=C1NC(=O)/C(=C/c2ccc3nccc(-c4ccncc4)c3c2)S1 | 0.697 ± 0.026 | 0.836 ± 0.011 | 0.73 ± 0.039 | 0.848 ± 0.026 | 0.886 ± 0.023 | 0.932 ± 0.027 |
| C[N+](C)(C)CCOP(=O)(O)OP(=O)([O-])OC[C@H]1O[C@@H](n2ccc(N)nc2=O)[C@H](O)[C@@H]1O [Citicoline sodium] | 1.003 ± 0.0058 | 1 ± 0.029 | 1.02 ± 0.011 | 1 ± 0.011 | 1.006 ± 0.0069 | 1.007 ± 0.0058 |
| CCN(CC)CCCC(C)Nc1ccnc2cc(Cl)ccc12 (configuration not stated) [Chloroquine diphosphate] | 1 ± 0.015 | 0.752 ± 0.026 | 1.001 ± 0.009 | 0.963 ± 0.04 | 0.9793 ± 0.0076 | 0.947 ± 0.013 |
| O=C(COc1cccc2c(=O)[nH]ccc12)c1ccccc1 | 0.9837 ± 0.005 | 1 ± 0.011 | 0.981 ± 0.01 | 0.912 ± 0.16 | 0.9897 ± 0.0067 | 0.9857 ± 0.0042 |
| CCNC(=O)[C@H]1O[C@@H](n2cnc3c(N)nc(NCCc4ccc(CCC(=O)O)cc4)nc32)[C@H](O)[C@@H]1O | 1 ± 0.015 | 0.984 ± 0.004 | 0.997 ± 0.0052 | 0.967 ± 0.011 | 0.989 ± 0.001 | 0.9883 ± 0.0072 |
| CNCCNS(=O)(=O)c1cccc2cnccc12 [H-8 dihydrochloride] | 0.9883 ± 0.0078 | 0.9753 ± 0.0091 | 0.9977 ± 0.004 | 1.04 ± 0.09 | 0.9783 ± 0.0059 | 0.993 ± 0.015 |
| C[C@](N)(Cc1ccc(O)cc1)C(=O)O [L-alpha-Methyl-p-tyrosine] | 1.003 ± 0.0058 | 1.03 ± 0.026 | 1.007 ± 0.0058 | 1.07 ± 0.081 | 0.989 ± 0.0044 | 0.998 ± 0.011 |
| CC(C)NCC(O)COc1cccc2ccccc12 (racemic) [(±)-Propranolol hydrochloride] | 1.017 ± 0.0058 | 1.02 ± 0.026 | 1.01 ± 0.011 | 1.08 ± 0.09 | 0.9967 ± 0.0049 | 1 ± 0.017 |
| c1ccc2c(c1)CCCC2C1=NCCN1 (configuration not stated) [Tetrahydrozoline hydrochloride] | 1 ± 0.0095 | 0.9983 ± 0.0015 | 0.898 ± 0.18 | 0.996 ± 0.012 | 0.997 ± 0.001 | 1 ± 0.011 |
| c1ccc2c(c1)CCCC2C1=NCCN1 (configuration not stated) [Tetrahydrozoline HCl] | 1.04 ± 0.015 | 1.06 ± 0.015 | 1.03 ± 0.023 | 1.07 ± 0.011 | 1.003 ± 0.0064 | 1.003 ± 0.0058 |
| CNc1ncnc2c1ncn2[C@@H]1O[C@H](CO)[C@@H](O)[C@H]1O [N6-Methyladenosine] | 1 | 0.998 ± 0.029 | 1.001 ± 0.009 | 0.949 ± 0.039 | 1.002 ± 0.0072 | 1 ± 0.015 |
| N[C@@H](CC(=O)O)C(=O)O [L-Aspartic acid] | 0.992 ± 0.007 | 1.006 ± 0.0063 | 0.996 ± 0.013 | 0.999 ± 0.03 | 0.993 ± 0.016 | 0.991 ± 0.0044 |
| CN=c1nc(-c2ccccc2)n(-c2ccccc2)s1 | 1.003 ± 0.0058 | 1.04 ± 0.031 | 0.832 ± 0.33 | 1.02 ± 0.01 | 1.01 | 1.017 ± 0.0058 |
| O=C(NOCC1CC1)c1ccc(F)c(F)c1Nc1ccc(I)cc1Cl | 0.7163 ± 0.0057 | 0.625 ± 0.027 | 0.841 ± 0.011 | 0.796 ± 0.02 | 0.844 ± 0.038 | 0.779 ± 0.051 |
| Nc1nc(F)nc2c1ncn2[C@@H]1O[C@H](COP(=O)(O)O)[C@@H](O)[C@@H]1O [Fludarabine; Fludarabine phosphate] | 1.02 ± 0.011 | 1.07 ± 0.023 | 1.027 ± 0.0058 | 1.03 ± 0.01 | 0.988 ± 0.004 | 0.739 ± 0.013 |
| COc1[nH]c2ccc(F)cc2c1C(=O)OCC1CCN(CCNS(C)(=O)=O)CC1.NS(=O)(=O)O | 1.023 ± 0.0058 | 0.955 ± 0.011 | 1.017 ± 0.0058 | 0.989 ± 0.021 | 0.9993 ± 0.0011 | 1.007 ± 0.0058 |
| CCCCN1CCC(n2c(=O)[nH]c3ccccc32)CC1 [NS 521 oxalate] | 1.02 ± 0.011 | 1.03 ± 0.046 | 1.03 ± 0.011 | 1.006 ± 0.0075 | 1.03 ± 0.01 | 1.03 ± 0.015 |
| CC1(C)CCC(c2ccc(Cl)cc2)=C(CN2CCN(c3ccc(C(=O)NS(=O)(=O)c4ccc(N[C@H](CCN5CCOCC5)CSc5ccccc5)c(S(=O)(=O)C(F)(F)F)c4)cc3)CC2)C1 [ABT-263 (Navitoclax)] | 0.991 ± 0.025 | 1.01 ± 0.022 | 0.998 ± 0.03 | 1.023 ± 0.0058 | 1.001 ± 0.0081 | 1.003 ± 0.0058 |
| COc1ccc(CC(C)NCC(O)c2ccc(O)c(NC=O)c2)cc1 (configuration not stated) [Formoterol fumarate dihydrate] | 1.003 ± 0.0064 | 0.9893 ± 0.0064 | 1.006 ± 0.0075 | 0.962 ± 0.019 | 0.9977 ± 0.0025 | 0.9973 ± 0.0031 |
| COc1ccc(CC(C)NCC(O)c2ccc(O)c(NC=O)c2)cc1 (configuration not stated) [Formoterol Hemifumarate] | 1.02 ± 0.021 | 0.959 ± 0.019 | 1.037 ± 0.0058 | 0.997 ± 0.025 | 1.013 ± 0.0058 | 1.01 |
